Experimental data as given in patent US8648074B2, “Substituted octahydropyrrolo[1,2-a]pyrazine sulfonamides as calcium channel blockers” (AbbVie Inc., priority 2011, dated 2014).

Target: human Cav2.2 (Homo sapiens, UniProt Q00975)
Test: In vitro assessment of calcium channel activity using FLIPR (Ca2+ influx in IMR32 cells)
Assay type: cell-based
Settings: IMR32 cells endogenously expressing human Cav2.2; Calcium 4 dye, 60 minute pre-incubation, 2 μM nifedipine, depolarized with 80 mM KCl; average of at least two runs unless marked *

Structure (SMILES) | IC50
O=S(=O)(c1cccc(C(F)(F)F)c1)N1CCN2C[C@H](Oc3cnc(C4CCC4)cn3)C[C@H]2C1 [Example 101, (7R,8aS)-7-[(5-cyclobutylpyrazin-2-yl)oxy]-2-{[3-(trifluoromethyl)phenyl]-sulfonyl}octahydropyrrolo[1,2-a]pyrazine] | 930 nM
O=S(=O)(c1cccc(C(F)(F)F)n1)N1CCN2C[C@H](Oc3ccc(C(F)(F)F)nc3)C[C@H]2C1 [Example 69, (7R,8aS)-7-{[6-(trifluoromethyl)pyridin-3-yl]oxy}-2-{[6-(trifluoromethyl)-pyridin-2-yl]sulfonyl}octahydropyrrolo[1,2-a]pyrazine] | 460 nM
O=S(=O)(c1cccc(C(F)(F)F)c1)N1CCN2C[C@H](Oc3ccnc(C4CC4)n3)C[C@H]2C1 [Example 166, (7R,8aS)-7-[(2-cyclopropylpyrimidin-4-yl)oxy]-2-{[3-(trifluoromethyl)-phenyl]sulfonyl}octahydropyrrolo[1,2-a]pyrazine] | 1120 nM
N#Cc1ccc(O[C@@H]2C[C@H]3CN(S(=O)(=O)c4cccc(C(F)(F)F)c4)CCN3C2)cn1 [Example 86, 5-{[(7R,8aS)-2-{[3-(trifluoromethyl)phenyl]sulfonyl}octahydropyrrolo[1,2-a]pyrazin-7-yl]oxy}pyridine-2-carbonitrile] | 2950 nM
O=S(=O)(c1cccc(C(F)(F)F)c1)N1CCN2C[C@@H](Oc3ccc4ocnc4c3)C[C@H]2C1 [Example 76, 5-{[(7S,8aS)-2-{[3-(trifluoromethyl)phenyl]sulfonyl}octahydropyrrolo[1,2-a]pyrazin-7-yl]oxy}-1,3-benzoxazole] | 810 nM
CC(C)c1cnc(O[C@@H]2C[C@H]3CN(S(=O)(=O)c4cccc(C(F)(F)F)c4)CCN3C2)cn1 [Example 118, (7R,8aS)-7-[(5-isopropylpyrazin-2-yl)oxy]-2-{[3-(trifluoromethyl)-phenyl]sulfonyl}octahydropyrrolo[1,2-a]pyrazine] | 490 nM
Cc1ccc(F)c(S(=O)(=O)N2CCN3C[C@H](Oc4cnc(C5CC5)cn4)C[C@H]3C2)c1 [Example 121, (7R,8aS)-7-[(5-cyclopropylpyrazin-2-yl)oxy]-2-[(2-fluoro-5-methylphenyl)-sulfonyl]octahydropyrrolo[1,2-a]pyrazine] | 1550 nM
O=S(=O)(c1cc(F)ccc1F)N1CCN2C[C@H](Oc3cnc(C4CC4)cn3)C[C@H]2C1 [Example 131, (7R,8aS)-7-[(5-cyclopropylpyrazin-2-yl)oxy]-2-[(2,5-difluorophenyl)-sulfonyl]octahydropyrrolo[1,2-a]pyrazine] | 3940 nM
O=S(=O)(c1c(F)cccc1F)N1CCN2C[C@H](Oc3cnc(C4CC4)cn3)C[C@H]2C1 [Example 122, (7R,8aS)-7-[(5-cyclopropylpyrazin-2-yl)oxy]-2-[(2,6-difluorophenyl)-sulfonyl]octahydropyrrolo[1,2-a]pyrazine] | 3140 nM
Cc1ccc(S(=O)(=O)N2CCN3C[C@H](Oc4cnc(C5CC5)cn4)C[C@H]3C2)s1 [Example 72, (7R,8aS)-7-[(5-cyclopropylpyrazin-2-yl)oxy]-2-[(5-methyl-2-thienyl)-sulfonyl]octahydropyrrolo[1,2-a]pyrazine] | 3760 nM
O=S(=O)(c1ccc(C(F)(F)F)cc1)N1CCN2C[C@H](Oc3ccc(C(F)(F)F)cn3)C[C@H]2C1 [Example 226, (7R,8aS)-2-{[4-(trifluoromethyl)phenyl]sulfonyl}-7-{[5-(trifluoromethyl)-pyridin-2-yl]oxy}octahydropyrrolo[1,2-a]pyrazine] | 2280 nM
O=C1C(Cc2cccc(C(F)(F)F)c2)C[C@H]2CN(S(=O)(=O)c3ccc(C(F)(F)F)cc3)CCN12 (stereo partly drawn) [Example 224, (8aS)-7-[3-(trifluoromethyl)benzyl]-2-{[4-(trifluoromethyl)phenyl]-sulfonyl}hexahydropyrrolo[1,2-a]pyrazin-6(2H)-one] | 353 nM
Cc1ccc(S(=O)(=O)N2CCN3C[C@H](Oc4cnc(C5CC5)cn4)C[C@H]3C2)cc1 [Example 110, (7R,8aS)-7-[(5-cyclopropylpyrazin-2-yl)oxy]-2-[(4-methylphenyl)sulfonyl]-octahydropyrrolo[1,2-a]pyrazine] | 4900 nM
COc1ccc(C(F)(F)F)cc1S(=O)(=O)N1CCN2C[C@H](Oc3cnc(C4CC4)cn3)C[C@H]2C1 [Example 173, (7R,8aS)-7-[(5-cyclopropylpyrazin-2-yl)oxy]-2-{[2-methoxy-5-(trifluoromethyl)phenyl]sulfonyl}octahydropyrrolo[1,2-a]pyrazine] | > 30000 nM
O=S(=O)(c1ccc2ccccc2c1)N1CCN2C[C@H](Oc3cnc(C4CC4)cn3)C[C@H]2C1 [Example 156, (7R,8aS)-7-[(5-cyclopropylpyrazin-2-yl)oxy]-2-(2-naphthylsulfonyl)-octahydropyrrolo[1,2-a]pyrazine] | 1910 nM
O=S(=O)(c1ccc(Cl)cc1F)N1CCN2C[C@H](Oc3cnc(C4CC4)cn3)C[C@H]2C1 [Example 130, (7R,8aS)-2-[(4-chloro-2-fluorophenyl)sulfonyl]-7-[(5-cyclopropylpyrazin-2-yl)oxy]octahydropyrrolo[1,2-a]pyrazine] | 1300 nM

Structure (SMILES) | IC50
O=S(=O)(c1cccc(OC(F)F)c1)N1CCN2C[C@H](Oc3cnc(C4CC4)cn3)C[C@H]2C1 [Example 30, (7R,8aS)-7-[(5-cyclopropylpyrazin-2-yl)oxy]-2-{[3-(difluoromethoxy)-phenyl]sulfonyl}octahydropyrrolo[1,2-a]pyrazine] | 750 nM
O=C1C(Cc2cccc(C(F)(F)F)c2)C[C@H]2CN(S(=O)(=O)c3cccc(C(F)(F)F)c3)CCN12 (stereo partly drawn) [Example 223, (8aS)-7-[3-(trifluoromethyl)benzyl]-2-{[3-(trifluoromethyl)phenyl]-sulfonyl}hexahydropyrrolo[1,2-a]pyrazin-6(2H)-one] | 127 nM
O=S(=O)(c1cccc(C(F)(F)F)c1)N1CCN2C[C@H](O)C[C@H]2C1 [Example 19, (7R,8aS)-2-{[3-(trifluoromethyl)phenyl]sulfonyl}octahydropyrrolo[1,2-a]-pyrazin-7-ol] | 1830 nM
Cc1ccc(C(C)(C)C)cc1S(=O)(=O)N1CCN2C[C@H](Oc3cnc(C4CC4)cn3)C[C@H]2C1 [Example 168, (7R,8aS)-2-[(5-tert-butyl-2-methylphenyl)sulfonyl]-7-[(5-cyclopropylpyrazin-2-yl)oxy]octahydropyrrolo[1,2-a]pyrazine] | 740 nM
O=S(=O)(c1cc(F)cc(F)c1)N1CCN2C[C@H](Oc3cnc(C4CC4)cn3)C[C@H]2C1 [Example 126, (7R,8aS)-7-[(5-cyclopropylpyrazin-2-yl)oxy]-2-[(3,5-difluorophenyl)-sulfonyl]octahydropyrrolo[1,2-a]pyrazine] | 3460 nM
O=C1[C@@H](Oc2cnc(C3CC3)cn2)C[C@@H]2CN(S(=O)(=O)c3cccc(C(F)(F)F)c3)CCN12 [Example 208, (7S,8aR)-7-[(5-cyclopropylpyrazin-2-yl)oxy]-2-{[3-(trifluoromethyl)-phenyl]sulfonyl}hexahydropyrrolo[1,2-a]pyrazin-6(2H)-one] | 1560 nM
O=S(=O)(c1ccc(C(F)(F)F)cc1)N1CCN2C[C@@H](Oc3cnc(C4CC4)cn3)C[C@@H]2C1 [Example 54, (7S,8aR)-7-[(5-cyclopropylpyrazin-2-yl)oxy]-2-{[4-(trifluoromethyl)phenyl]-sulfonyl}octahydropyrrolo[1,2-a]pyrazine] | 1460 nM
O=S(=O)(c1cccc(F)c1)N1CCN2C[C@H](Oc3cnc(C4CC4)cn3)C[C@H]2C1 [Example 144, (7R,8aS)-7-[(5-cyclopropylpyrazin-2-yl)oxy]-2-[(3-fluorophenyl)sulfonyl]-octahydropyrrolo[1,2-a]pyrazine] | 3850 nM
Cn1nccc1-c1cccc(S(=O)(=O)N2CCN3C[C@H](Oc4cnc(C5CC5)cn4)C[C@H]3C2)c1 [Example 176, (7R,8aS)-7-[(5-cyclopropylpyrazin-2-yl)oxy]-2-{[3-(1-methyl-1H-pyrazol-5-yl)phenyl]sulfonyl}octahydropyrrolo[1,2-a]pyrazine] | 1330 nM
Cc1ccc(S(=O)(=O)N2CCN3C[C@H](Oc4cnc(C5CC5)cn4)C[C@H]3C2)cc1F [Example 125, (7R,8aS)-7-[(5-cyclopropylpyrazin-2-yl)oxy]-2-[(3-fluoro-4-methylphenyl)-sulfonyl]octahydropyrrolo[1,2-a]pyrazine] | 1510 nM
CC(=O)c1cccc(S(=O)(=O)N2CCN3C[C@H](Oc4cnc(C5CC5)cn4)C[C@H]3C2)c1 [Example 108, 1-(3-{[(7R,8aS)-7-[(5-cyclopropylpyrazin-2-yl)oxy]hexahydropyrrolo[1,2-a]-pyrazin-2(1H)-yl]sulfonyl}phenyl)ethanone] | 4360 nM
O=S(=O)(c1cccc(F)c1F)N1CCN2C[C@H](Oc3cnc(C4CC4)cn3)C[C@H]2C1 [Example 95, (7R,8aS)-7-[(5-cyclopropylpyrazin-2-yl)oxy]-2-[(2,3-difluorophenyl)-sulfonyl]octahydropyrrolo[1,2-a]pyrazine] | 2540 nM
O=C1C(Oc2cnc(C3CC3)cn2)CC2CN(S(=O)(=O)c3cccc(C(F)(F)F)c3)CCN12 (centres unmarked) [Example 207, 7-[(5-cyclopropylpyrazin-2-yl)oxy]-2-{[3-(trifluoromethyl)phenyl]-sulfonyl}hexahydropyrrolo[1,2-a]pyrazin-6(2H)-one] | 880 nM
O=C1[C@@H](Oc2cnc(C3CC3)cn2)C[C@H]2CN(S(=O)(=O)c3cccc(C(F)(F)F)c3)CCN12 [Example 209, (7S,8aS)-7-[(5-cyclopropylpyrazin-2-yl)oxy]-2-{[3-(trifluoromethyl)-phenyl]sulfonyl}hexahydropyrrolo[1,2-a]pyrazin-6(2H)-one] | 610 nM
O=S(=O)(c1cccc(C(F)(F)F)c1)N1CCN2C[C@H](Oc3ncc(Br)s3)C[C@H]2C1 [Example 93, (7R,8aS)-7-[(5-bromo-1,3-thiazol-2-yl)oxy]-2-{[3-(trifluoromethyl)-phenyl]sulfonyl}octahydropyrrolo[1,2-a]pyrazine] | 1570 nM
O=S(=O)(c1ccc(OC(F)F)cc1)N1CCN2C[C@H](Oc3cnc(C4CC4)cn3)C[C@H]2C1 [Example 29, (7R,8aS)-7-[(5-cyclopropylpyrazin-2-yl)oxy]-2-{[4-(difluoromethoxy)-phenyl]sulfonyl}octahydropyrrolo[1,2-a]pyrazine] | 1460 nM
